Assay results published in the RNAGym collection of RNA variant scans (doi:10.1073/pnas.2313332121).
Variants at the floor of the assay are shown more often than the library holds them.

B1: TPR 5TU (parent)
chain: GGAUCUUCUCGAUCUAACAAAAAAGACAAAUCUGCCACAAAGCUUGAGAGCAUCUUCGGAUGCAGAGGCGGCAGCCUUCGGUGGCGCGAUAGCGCCAACGUUCUCAACUAUGACACGCAAAACGCGUGCUCCGUUGAAUGGAGUUUAUCAUG

Variants of: B1
Assay: polymerase ribozyme fitness, log enrichment relative to wild type (log ratio); higher = more active; in vitro selection for triplet polymerase activity
Procedure, shortened: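 Genotype fitness is the logarithm of its enrichment divided by wild-type enrichment, using inverse-variance-weighted averages of replicates. That logarithm is base 2. Enrichment was measured by Illumina sequencing of input and output libraries from one triplicate in vitro selection round, with frozen incubation at −7 °C, on PCR-built, transcribed mutant libraries of each subunit of a heterodimeric triplet polymerase ribozyme, retaining genotypes with ≥10 input reads and ≥1 read per output.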

| Variant | polymerase ribozyme fitness (log ratio) |
| --- | --- |
| GGAUCUUCUCGAUCUAACAAAAAAGACAAAUCUGCCACAAAGCUUGAGAGCAUCUUCGGAUGCAGAGGCGGCAGCCUUCGGUGGCGCGAUAGCGCCAUCGUUCUCAACUAUGACUCGCAAGACGCGGGCUCCGUUGAAUGGAGUUUAUCAUG [A98U A115U A121G U127G] | -3.32 |
| GGAUCUUCUCGAUCUAACAAAAAAGACAAAUCUGCCACAAAGCUUGAGAGCAUCUUCGGAUGCAGAGGCGGCAGCCUUCGGUGGCGCGAUAGCGCCUACGUUCUCAACUAUGACAUGCAAAACGCGUGCUCCGUUGAAUGGAGUUUAUCAUG [A97U C116U] | -0.695 |
| GGAUCUUCUCGAUCUAACAAAAAAGACAAAUCUGCCACAAAGCUUGAGAGCAUCUUCGGAUGCAGAGGCGGCAGCCUUCGGUGGCGCGAUAGCGCCGACGUUCUCAACUAUGACACGCAAAAUGCGUGCUCCGUUGAAUGGAGUUUAUCAUG [A97G C123U] | 0.215 |
| GGAUCUUCUCGAUCUAACAAAAAAGACAAAUCUGCCACAAAGCUUGAGAGCAUCUUCGGAUGCAGAGGCGGCAGCCUUCGGUGGCGCGAUAGCGCCAAAGUUCUCAACUAUGACACGCAAAACGCGUGCUCCGUUGAAUGGAGUUUAGCAUG [C99A U148G] | ≤ -4.2 |
| GGAUCUUCUCGAUCUAACAAAAAAGACAAAUCUGCCACAAAGCUUGAGAGCAUCUUCGGAUGCAGAGGCGGCAGCCUUCGGUGGCGCGAUAGCGCCGACGUUCUCAACUAUGACACGCAAAACGCGUGCUCCGUUGAAUGGAGUUUAUCAUA [A97G G152A] | -3.19 |
| GGAUCUUCUCGAUCUAACAAAAAAGACAAAUCUGCCACAAAGCUUGAGAGCAUCUUCGGAUGCAGAGGCGGCAGCCUUCGGUGGCGCGAUAGCGCUAACGUUCUCAACUAUGACACGCAAAACGCGUGCUCCGUUGAAUGGAGUAUAUCUUG [C96U U145A A150U] | 0.912 |
| GGAUCUUCUCGAUCUAACAAAAAAGACAAAUCUGCCACAAAGCUUGAGAGCAUCUUCGGAUGCAGAGGCGGCAGCCUUCGGUGGCGCGAUAGCGCCAUCGUUCUCAACUAUGACACGCAAAACGCGUGCUCCGUUGCAUGGAGUUUAUCAUG [A98U A137C] | -4.19 |
| GGAUCUUCUCGAUCUAACAAAAAAGACAAAUCUGCCACAAAGCUUGAGAGCAUCUUCGGAUGCAGAGGCGGCAGCCUUCGGUGGCGCGAUAGCGCUAACGUUCUCAACUAUGACACGCAAAACGCGUGCUCCGUUGAAUGGGGUUUAUCAUG [C96U A142G] | -1.18 |
| GGAUCUUCUCGAUCUAACAAAAAAGACAAAUCUGCCACAAAGCUUGAGAGCAUCUUCGGAUGCAGAGGCGGCAGCCUUCGGUGGCGCGAUAGCGCUAACAUUCUCAACUAUGACACGCAAAACGCGUCCUCCGUUGAAUGGAGUUUAUCAUG [C96U G100A G128C] | ≤ -4.2 |
| GGAUCUUCUCGAUCUAACAAAAAAGACAAAUCUGCCACAAAGCUUGAGAGCAUCUUCGGAUGCAGAGGCGGCAGCCUUCGGUGGCGCGAUAGCGCUAACGUUCUCUCCUAUGACACGCAAAACGCGUGCUCCGUUGAAUGGAGUUUAUCUUG [C96U A106U A107C A150U] | ≤ -4.2 |
| GGAUCUUCUCGAUCUAACAAAAAAGACAAAUCUGCCACAAAGCUUGAGAGCAUCUUCGGAUGCAGAGGCGGCAGCCUUCGGUGGCGCGAUAGCGCGAACGUUCUCAACUAUGACACGCAAAACGGGUGCGCAGUUGAAUGGAGUUUAUCAUG [C96G C125G U130G C132A] | ≤ -4.2 |
| GGAUCUUCUCGAUCUAACAAAAAAGACAAAUCUGCCACAAAGCUUGAGAGCAUCUUCGGAUGCAGAGGCGGCAGCCUUCGGUGGCGCGAUAGCGCCAAAGUUCUCAACUUUGACACGCAAAACACGUGCUCCGUUGAACGGAGUUUAUCAUG [C99A A110U G124A U139C] | ≤ -4.2 |
| GGAUCUUCUCGAUCUAACAAAAAAGACAAAUCUGCCACAAAGCUUGAGAGCAUCUUCGGAUGCAGAGGCGGCAGCCUUCGGUGGCGCGAUAGCGCGAACGUUCUCAACGAUGACACGCAAAACCCGUGCUCCGUUGAAUGGAGUUUAUCAUG [C96G U109G G124C] | -2.62 |
| GGAUCUUCUCGAUCUAACAAAAAAGACAAAUCUGCCACAAAGCUUGAGAGCAUCUUCGGAUGCAGAGGCGGCAGCCUUCGGUGGCGCGAUAGCGCUAACGUUCUUAACUAUGACACGCAAAACGCGUGCUCCGUUGAAUGGAGUUUAUCAUG [C96U C105U] | 0.67 |
| GGAUCUUCUCGAUCUAACAAAAAAGACAAAUCUGCCACAAAGCUUGAGAGCAUCUUCGGAUGCAGAGGCGGCAGCCUUCGGUGGCGCGAUAGCGCCGAGGUUCUCAACUAUGACACGCAAAACGCGUGCUCCGUUGAAUGGAGUUUAUCAUG [A97G C99G] | -0.579 |
| GGAUCUUCUCGAUCUAACAAAAAAGACAAAUCUGCCACAAAGCUUGAGAGCAUCUUCGGAUGCAGAGGCGGCAGCCUUCGGUGGCGCGAUAGCGCCAAGGUUCUCAACUAUGACACGCAAAACGCGUGCUGCAUUGAAUGGAGUUUAUCAUG [C99G C131G G133A] | ≤ -4.2 |
| GGAUCUUCUCGAUCUAACAAAAAAGACAAAUCUGCCACAAAGCUUGAGAGCAUCUUCGGAUGCAGAGGCGGCAGCCUUCGGUGGCGCGAUAGCGCCAUCGUUCUCAACUAUGACACGCAAAACGCGUGCUCCGUUGAAUGGUGUUUAUCAUG [A98U A142U] | -2.98 |
| GGAUCUUCUCGAUCUAACAAAAAAGACAAAUCUGCCACAAAGCUUGAGAGCAUCUUCGGAUGCAGAGGCGGCAGCCUUCGGUGGCGCGAUAGCGCCAUCGUUCAUAACUAUGACACGCAAAACGGGUGCUCCGUUGAAUGGAGUUUAUCAUG [A98U U104A C105U C125G] | ≤ -4.2 |
| GGAUCUUCUCGAUCUAACAAAAAAGACAAAUCUGCCACAAAGCUUGAGAGCAUCUUCGGAUGCAGAGGCGGCAGCCUUCGGUGGCGCGAUAGCGCCAGCGUUCUCAACUAUGACACGCAAGACGCGUGCUCCGUUGAAUGGAGUUUAUCAUG [A98G A121G] | -1.63 |

| Variant | polymerase ribozyme fitness (log ratio) |
| --- | --- |
| GGAUCUUCUCGAUCUAACAAAAAAGACAAAUCUGCCACAAAGCUUGAGAGCAUCUUCGGAUGCAGAGGCGGCAGCCUUCGGUGGCGCGAUAGCGCUAACGUUCACAACUAUGAAACGCAAAACGCGUGGUCCGUUGAAUGGAGUAUAUCAUG [C96U U104A C114A C129G U145A] | ≤ -4.2 |
| GGAUCUUCUCGAUCUAACAAAAAAGACAAAUCUGCCACAAAGCUUGAGAGCAUCUUCGGAUGCAGAGGCGGCAGCCUUCGGUGGCGCGAUAGCGCUAACGGUCUCAACUAUGACACGCAAAACCCGUGCUCCGUUGAAUGGAGUUUAUCAUG [C96U U101G G124C] | -0.75 |
| GGAUCUUCUCGAUCUAACAAAAAAGACAAAUCUGCCACAAAGCUUGAGAGCAUCUUCGGAUGCAGAGGCGGCAGCCUUCGGUGGCGCGAUAGCGCUAACGUUUUCAACUAUGACACGCAAAACGCGUGCUCCGUUGAAUGGAGUUUAUCAUG [C96U C103U] | -1.25 |
| GGAUCUUCUCGAUCUAACAAAAAAGACAAAUCUGCCACAAAGCUUGAGAGCAUCUUCGGAUGCAGAGGCGGCAGCCUUCGGUGGCGCGAUAGCGCUAACGUUCUCAACUAUGACACGCAAAACGCGUGCUCCGUUGAAUGGAGUUUAACAUG [C96U U148A] | -3.33 |
| GGAUCUUCUCGAUCUAACAAAAAAGACAAAUCUGCCACAAAGCUUGAGAGCAUCUUCGGAUGCAGAGGCGGCAGCCUUCGGUGGCGCGAUAGCGCCGACGUUCUCAACUAUGACAUGCAAAACGCGUGCUCCUUUGAAUGGAGUUUAUCAUG [A97G C116U G133U] | ≤ -4.2 |
| GGAUCUUCUCGAUCUAACAAAAAAGACAAAUCUGCCACAAAGCUUGAGAGCAUCUUCGGAUGCAGAGGCGGCAGCCUUCGGUGGCGCGAUAGCGCUAGCGUUCUCAACUAAGACACGCAAAACGCGUGCUCCGUUGAAUGGAGUUUAUCAUA [C96U A98G U111A G152A] | ≤ -4.2 |
| GGAUCUUCUCGAUCUAACAAAAAAGACAAAUCUGCCACAAAGCUUGAGAGCAUCUUCGGAUGCAGAGGCGGCAGCCUUCGGUGGCGCGAUAGCGCCAAAGGUCUCAACUAUGACACGCAAAACGCGUGCUCCGUUGAAUGGAGUUUAUCAUG [C99A U101G] | -3.16 |
| GGAUCUUCUCGAUCUAACAAAAAAGACAAAUCUGCCACAAAGCUUGAGAGCAUCUUCGGAUGCAGAGGCGGCAGCCUUCGGUGGCGCGAUAGCGCCAAAGUUCUCAACUAUGACUCGCAGAACGCGUGCUCCGUUGAAUGGAGUUUAUCAUG [C99A A115U A120G] | -2.43 |
| GGAUCUUCUCGAUCUAACAAAAAAGACAAAUCUGCCACAAAGCUUGAGAGCAUCUUCGGAUGCAGAGGCGGCAGCCUUCGGUGGCGCGAUAGCGCUAACGUUCUCAACUAUGACACGCAAAACGCGUGCUCCGUUGAAUGGAGUUUAUCAGG [C96U U151G] | -4.05 |
| GGAUCUUCUCGAUCUAACAAAAAAGACAAAUCUGCCACAAAGCUUGAGAGCAUCUUCGGAUGCAGAGGCGGCAGCCUUCGGUGGCGCGAUAGCGCCGACGUUCUCAACUAUGACACGCAAAACGCGUGCUCCGUUGAAUGGAGUUUAUCGUG [A97G A150G] | -2.82 |
| GGAUCUUCUCGAUCUAACAAAAAAGACAAAUCUGCCACAAAGCUUGAGAGCAUCUUCGGAUGCAGAGGCGGCAGCCUUCGGUGGCGCGAUAGCGCCUAGGUUCUCAACUAUGACACGCAAAACGCGUGCUCCGUUGAAUGGAGUUUAUCAUG [A97U C99G] | -1.6 |
| GGAUCUUCUCGAUCUAACAAAAAAGACAAAUCUGCCACAAAGCUUGAGAGCAUCUUCGGAUGCAGAGGCGGCAGCCUUCGGUGGCGCGAUAGCGCCUACGUUCUCAACUAUGACACGCAAAACUCGUGCUCCGUUGAAUGGAGUUUAUCAUG [A97U G124U] | -1.05 |
| GGAUCUUCUCGAUCUAACAAAAAAGACAAAUCUGCCACAAAGCUUGAGAGCAUCUUCGGAUGCAGAGGCGGCAGCCUUCGGUGGCGCGAUAGCGCUAACGUUCUCAACUAUGGCACGCAAAACGCGUGCUCCGUUCAAUGGAGUUUAUCAUG [C96U A113G G136C] | -3.93 |
| GGAUCUUCUCGAUCUAACAAAAAAGACAAAUCUGCCACAAAGCUUGAGAGCAUCUUCGGAUGCAGAGGCGGCAGCCUUCGGUGGCGCGAUAGCGCCUACGUUCUCAACUAUGACACGCAAAACGCGUGCUCCGUUGAAUGCAGUUGAUCAUG [A97U G141C U146G] | -2.08 |
| GGAUCUUCUCGAUCUAACAAAAAAGACAAAUCUGCCACAAAGCUUGAGAGCAUCUUCGGAUGCAGAGGCGGCAGCCUUCGGUGGCGCGAUAGCGCGAACGUGCUCAACUAUGACACGCAAAACGCGUGCUCCGUUGAAUGGAGUUUAUCAUG [C96G U102G] | -3.26 |
| GGAUCUUCUCGAUCUAACAAAAAAGACAAAUCUGCCACAAAGCUUGAGAGCAUCUUCGGAUGCAGAGGCGGCAGCCUUCGGUGGCGCGAUAGCGCCGACGUUCUCAACUAUGACACGCAAAAGGCGUGCUGCGUUGAAUGGAGUUUAUCAUG [A97G C123G C131G] | -2.72 |
| GGAUCUUCUCGAUCUAACAAAAAAGACAAAUCUGCCACAAAGCUUGAGAGCAUCUUCGGAUGCAGAGGCGGCAGCCUUCGGUGGCGCGAUAGCGCGAACGUUUUCAACUAUGACACGCAAAACGCGUGCUCCGUUGAAUGGAGUUUAUCAUG [C96G C103U] | -0.445 |
| GGAUCUUCUCGAUCUAACAAAAAAGACAAAUCUGCCACAAAGCUUGAGAGCAUCUUCGGAUGCAGAGGCGGCAGCCUUCGGUGGCGCGAUAGCGCCGACGUUCUCAACUAUGACACGCAAAACGCGUGCUACGUUGAAUGGAGUUUAUCAUG [A97G C131A] | -2.32 |
| GGAUCUUCUCGAUCUAACAAAAAAGACAAAUCUGCCACAAAGCUUGAGAGCAUCUUCGGAUGCAGAGGCGGCAGCCUUCGGUGGCGCGAUAGCGCUAACGUUCUAAACUAUGACAGGCAAAACGCGUGCUCCGUUGAAUGGAGUUUAUCAUG [C96U C105A C116G] | -1.79 |
